Source: the supplement of paper PMC12217912
Some of the results follow. Sequences were assembled here from the parent chain. Values near 0.05 are background.

B1: TEV protease; numbered along this chain (parent)
chain: MGESLFKGPRDYNPISSSICHLTNESDGHTTSLYGIGFGPFIITNKHLFRRNNGTLVVQSLHGVFKVKDTTTLQQHLVDGRDMIIIRMPKDFPPFPQKLKFREPQREERICLVTTNFQTKSMSSMVSDTSCTFPSGDGIFWKHWIQTKDGQCGSPLVSTRDGFIVGIHSASNFTNTNNYFTSVPKNFMELLTNQEAQQWVSGWRLNADSVLWGGHKVFMVKPEEPFQPVKEATQL

Variants of: B1
Assay: raw area under fraction-flipped curve 0-4 h after induction (AUC4h, not background-subtracted), DNA-recorder readout of cleavage of the substrate (dimensionless); higher = more cleavage of the substrate by the protease variant
Settings: temperature: 34 °C; time window: 0-4 h after rhamnose induction
Description: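 In vivo DNA recorder in E. coli TOP10(DE3) ΔrhaA at 34 °C. Each TEVp single-site mutant (parent TEVp 0) is paired with a single-site variant of the 7-mer TEVs (canonical ENLYFQ|S). The substrate sits between flexible linkers in a Bxb1-sfGFP-TEVs-SsrA fusion, so cleavage stabilises Bxb1 and speeds flipping of a recombination array, read by NGS. The value is the raw area under the fraction-flipped curve over 0-4 h after rhamnose induction (AUC4h), with ≥20 reads per time point. It is not background-subtracted; inactive controls average about 0.047.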
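Further: Bxb1 expression induced with 0.2% (w/v) L-rhamnose at OD600 near 0.5, cultures sampled hourly, flipped fraction per protease–substrate barcode pair counted by paired-end Illumina sequencing.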

Variant | area with substrate ENLYDQS | area with substrate ENLYEQS | area with substrate ENLYHQS | area with substrate ENLYIQS | area with substrate ENLYKQS | area with substrate ENLYMQS | area with substrate ENLYNQS | area with substrate ENLYPQS | area with substrate ENLYRQS | area with substrate ENLYSQS | area with substrate ENLYTQS | area with substrate ENLYWQS | area with substrate ENLYLQS | area with substrate ENLYGQS | area with substrate ENLYQQS | area with substrate ENLYVQS | area with substrate ENLYYQS
V64Y | 0.0762 | 0.0716 | 0.0769 | 0.104 | 0.0704 | 0.104 | 0.066 | 0.0614 | 0.0964 | 0.0676 | 0.0678 | 0.0933 | – | – | – | – | –
F65A | 0.0464 | 0.0923 | 0.067 | 0.0785 | 0.0658 | – | 0.0653 | 0.0718 | 0.0619 | – | – | – | 0.0721 | – | – | – | –
K66S | 0.0621 | 0.0655 | 0.076 | 0.0962 | 0.0603 | 0.133 | 0.0724 | 0.0665 | 0.0549 | 0.0702 | – | 0.0816 | 0.0876 | 0.0652 | 0.0563 | 0.108 | –
L77K | 0.0643 | – | 0.0595 | 0.0676 | 0.0585 | – | 0.0626 | – | – | – | – | – | – | – | 0.0643 | 0.0522 | –
D79N | 0.0451 | 0.0868 | – | 0.0885 | 0.0612 | – | 0.059 | – | 0.0567 | 0.0667 | – | 0.0888 | – | 0.0673 | 0.0624 | 0.0664 | –
G80M | 0.0435 | 0.0654 | 0.0582 | 0.138 | 0.0743 | 0.0827 | – | 0.0868 | 0.0611 | – | 0.0866 | 0.0831 | – | 0.0631 | 0.0521 | – | 0.0688
I85L | 0.0719 | 0.0719 | – | 0.125 | 0.0314 | 0.0875 | – | – | 0.0671 | 0.0939 | 0.097 | – | – | 0.0368 | – | 0.121 | –
I86N | 0.0581 | 0.0485 | – | 0.0535 | – | 0.0518 | 0.0504 | – | – | – | – | 0.0425 | – | – | 0.0429 | 0.038 | –
P96R | 0.0735 | 0.0759 | – | 0.132 | 0.0681 | – | 0.059 | – | – | – | – | 0.0846 | 0.127 | – | – | – | –
K98W | 0.0534 | 0.0701 | 0.0773 | 0.103 | 0.0485 | 0.0952 | 0.0797 | 0.0775 | 0.0563 | 0.0593 | 0.0903 | 0.0761 | 0.106 | 0.0657 | 0.0471 | – | –
F101W | 0.0919 | 0.0643 | 0.0714 | – | 0.0515 | 0.0912 | – | – | 0.0664 | – | – | – | – | 0.0629 | 0.0498 | 0.124 | 0.0704
R102G | 0.0534 | 0.0435 | 0.0447 | 0.0677 | 0.0526 | 0.0631 | 0.0507 | 0.041 | 0.039 | 0.053 | – | 0.07 | 0.0645 | 0.0594 | 0.0522 | – | –
R102I | 0.0354 | 0.0412 | 0.0556 | 0.0607 | 0.0593 | 0.0618 | 0.0492 | 0.0442 | – | 0.0703 | 0.0319 | 0.0457 | – | 0.0399 | – | 0.0676 | 0.0539
P104H | 0.0527 | 0.0437 | 0.0499 | – | – | – | – | – | 0.0506 | – | – | 0.0466 | – | 0.0363 | 0.0481 | 0.0523 | –
P104K | 0.0794 | – | – | 0.0502 | – | – | 0.0364 | – | – | – | 0.0461 | – | – | 0.0492 | – | – | –
I110E | 0.0546 | – | 0.0695 | – | 0.0528 | – | – | 0.0459 | 0.0599 | 0.0526 | 0.0601 | – | – | – | 0.0553 | – | –

Variant | area with substrate ENLYDQS | area with substrate ENLYEQS | area with substrate ENLYHQS | area with substrate ENLYIQS | area with substrate ENLYKQS | area with substrate ENLYMQS | area with substrate ENLYNQS | area with substrate ENLYPQS | area with substrate ENLYRQS | area with substrate ENLYSQS | area with substrate ENLYTQS | area with substrate ENLYWQS | area with substrate ENLYLQS | area with substrate ENLYGQS | area with substrate ENLYQQS | area with substrate ENLYVQS | area with substrate ENLYYQS
L112D | 0.0558 | – | 0.0609 | 0.0586 | 0.0648 | – | – | – | 0.0545 | – | – | – | 0.0645 | 0.0625 | – | 0.0501 | –
F117V | 0.0726 | 0.066 | 0.0804 | – | 0.0481 | 0.0768 | 0.0729 | 0.0153 | 0.0562 | 0.0664 | 0.0853 | 0.0768 | – | 0.0614 | 0.118 | 0.106 | 0.0766
T119I | 0.0548 | 0.0628 | 0.0471 | – | 0.0539 | – | – | 0.106 | 0.0505 | – | – | – | 0.0589 | 0.0441 | 0.0643 | 0.0667 | 0.0645
S124K | 0.0624 | 0.073 | 0.0565 | – | 0.0685 | 0.0981 | 0.0834 | 0.0707 | 0.0602 | 0.0725 | 0.0726 | 0.0806 | – | 0.0624 | 0.0529 | 0.135 | –
D128S | 0.0504 | 0.0574 | 0.116 | – | – | 0.102 | 0.093 | 0.105 | 0.0716 | – | – | – | – | – | 0.0654 | – | –
S130R | 0.067 | 0.138 | 0.0481 | – | 0.0648 | – | 0.0675 | 0.0797 | 0.0632 | 0.0704 | – | 0.0597 | – | – | 0.0616 | 0.108 | –
T132D | 0.054 | 0.0526 | 0.0643 | 0.0547 | 0.0522 | 0.0461 | 0.0543 | 0.0574 | 0.046 | 0.0623 | – | 0.0516 | 0.0558 | 0.0535 | 0.0525 | 0.0572 | 0.0537
W141S | 0.0575 | 0.058 | 0.0614 | 0.0583 | 0.0511 | 0.0721 | 0.0509 | 0.056 | 0.0602 | 0.0566 | – | – | – | – | – | 0.0845 | 0.052
K142Y | 0.0635 | 0.0709 | 0.0552 | 0.0901 | 0.0499 | 0.0844 | 0.0647 | 0.084 | 0.061 | – | – | – | – | 0.0602 | – | – | 0.0622
W144G | 0.068 | 0.0611 | 0.0712 | 0.0905 | 0.0658 | 0.0761 | – | 0.0721 | – | – | 0.0707 | 0.0493 | 0.0775 | 0.0801 | 0.0699 | 0.0975 | 0.0722
W144I | 0.059 | 0.0587 | 0.0677 | 0.0765 | – | – | – | 0.0738 | 0.0541 | 0.0878 | – | – | – | 0.0477 | – | 0.0938 | 0.0704
C152H | 0.0705 | 0.063 | 0.0648 | – | 0.0829 | – | – | 0.0674 | – | 0.0568 | – | – | – | – | – | – | –
C152R | 0.0673 | 0.0715 | 0.0582 | 0.045 | 0.0442 | 0.0642 | 0.0618 | – | 0.0621 | 0.0657 | – | 0.0577 | 0.0608 | 0.0553 | 0.0596 | 0.0666 | –
G153R | 0.0415 | – | 0.058 | – | – | – | – | – | – | – | – | – | – | – | – | – | –
G153V | 0.0429 | – | 0.0596 | 0.146 | – | 0.0679 | 0.0538 | 0.0592 | – | – | – | – | 0.0466 | – | – | 0.0533 | 0.0414
R160E | 0.0671 | 0.0701 | 0.073 | 0.0898 | 0.0238 | 0.0929 | 0.0683 | 0.0743 | 0.0861 | 0.085 | – | – | – | 0.0787 | 0.048 | 0.123 | –
